“And” between values parts separate entries of the source, which are not always exact repeats. Equal values may be shown once. About 40 (0.2%) of roughly 16,000 compounds were called active. Inconclusive results (about 1%) are left out. Calls come from the whole dose curve; as a rule, active = well fitted activation curve with a large enough effect; inconclusive = small, poorly fitted or top-dose-only effect, or another doubt; inactive = no such curve, though single readings can be large or run the other way. Some of the results follow.
% is set by controls: 0 for no effect and ±100 for the full control effect.

Chain of UniProt Q8WZA2 (Q8WZA2 whole entry, looked up): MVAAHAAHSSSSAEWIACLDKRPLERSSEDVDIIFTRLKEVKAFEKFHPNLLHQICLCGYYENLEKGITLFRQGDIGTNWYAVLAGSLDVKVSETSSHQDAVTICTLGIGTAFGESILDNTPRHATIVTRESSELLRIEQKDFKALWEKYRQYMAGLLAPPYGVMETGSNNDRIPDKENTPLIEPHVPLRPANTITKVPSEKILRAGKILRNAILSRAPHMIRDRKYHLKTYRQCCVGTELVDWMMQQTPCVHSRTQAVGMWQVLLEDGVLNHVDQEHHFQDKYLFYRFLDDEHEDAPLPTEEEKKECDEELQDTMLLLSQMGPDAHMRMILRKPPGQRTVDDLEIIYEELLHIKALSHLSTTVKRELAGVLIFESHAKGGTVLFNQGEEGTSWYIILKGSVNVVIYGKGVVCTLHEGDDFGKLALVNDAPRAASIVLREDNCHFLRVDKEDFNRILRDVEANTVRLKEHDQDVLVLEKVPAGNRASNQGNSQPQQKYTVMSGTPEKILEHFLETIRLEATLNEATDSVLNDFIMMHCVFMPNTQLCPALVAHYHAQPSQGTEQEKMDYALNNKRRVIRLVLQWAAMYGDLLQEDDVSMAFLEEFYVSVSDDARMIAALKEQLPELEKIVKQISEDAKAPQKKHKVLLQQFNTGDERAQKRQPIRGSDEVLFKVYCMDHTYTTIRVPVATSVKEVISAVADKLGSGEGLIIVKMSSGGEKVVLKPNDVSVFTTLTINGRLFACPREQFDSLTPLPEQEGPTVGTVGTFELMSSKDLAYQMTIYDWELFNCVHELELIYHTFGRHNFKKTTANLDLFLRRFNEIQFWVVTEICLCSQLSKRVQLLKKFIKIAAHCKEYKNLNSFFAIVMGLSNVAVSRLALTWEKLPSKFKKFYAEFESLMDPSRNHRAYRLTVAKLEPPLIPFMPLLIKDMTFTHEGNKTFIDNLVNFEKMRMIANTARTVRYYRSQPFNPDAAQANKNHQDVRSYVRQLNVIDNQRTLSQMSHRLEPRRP

The target in this assay is Rap guanine nucleotide exchange factor 4 (Homo sapiens) (UniProt Q8WZA2). The assay is described as follows: Validation qHTS for agonist of cAMP-regulated guanine nucleotide exchange factor 4 (EPAC2).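 Note: exchange makes BODIPY-GDP fluorescence drop when released from Rap1B; series mostly up to about 150 µM.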 To be noted: EPAC2 Rap1B BODIPY-GDP exchange, fluorescence; activation: active compounds read high. The essentials:
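Fluorescent exchange assay: 100 nM EPAC2 with 250 nM RAP1B-BODIPY-GDP and 50 uM GDP; compound added, 5 min at room temperature, then read (ex 480/em 540 nm) every 5 min for 30 min. Normalized to 6.5 mM cAMP agonist control.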
For orientation: qHTS replaces the single test concentration by a dilution series.
Regarding `c1ccc2c(CCC3CCNCC3)c[nH]c2c1`, the activation is inactive: -7.1%.

For `C=CC(C1=CC(=O)C(OC)=C(OC)C1=O)c1ccccc1` (stereo unspecified), the activation was inactive: -12.6%.

Turning to `COc1ccc(C(=O)C[n+]2cccc3cccc(O)c32)cc1`, the activation was inactive: -13.2%.

With `Cc1ccccc1C1(CC(=O)N2CC3(C)CC2CC(C)(C)C3)CC(=O)N(Cc2cccnc2)C1=O` (stereo unspecified), the activation was inactive: -11.8%.

Consider `OC[C@H]1O[C@@H](OC[C@H]2O[C@@H](O)[C@H](O)[C@@H](O)[C@@H]2O)[C@H](O)[C@@H](O)[C@@H]1O`, for which the activation is inactive: -1.95%.

As to `Cc1cccc(CNc2ccnc(-c3ccc(N(C)C)cc3)n2)c1`, the activation was inactive: -11.7%.

Consider `CCOC(=O)C[C@H]1c2ccccc2S(=O)(=O)N1c1ccccc1`, for which the activation was inactive: -24.7%.

As for `CN(C)c1ncc2nc(-c3cccc(C#N)c3)c(=O)n(CCC#N)c2n1`, the activation was inactive: -0.938%.

Consider `O=C(O)[C@H]1C(=CCO)O[C@H]2CC(=O)N12`, for which the activation was inactive: -12.9%.

In the case of `C[C@]12CC3CC(N)(C1)C[C@@](C)(C3)C2`, the activation was inactive: 3.85%.

For `C[C@@H]1CN(Cc2ccc3c(c2)CN(Cc2ccc(Oc4ncccn4)cc2)CCO3)C[C@H](C)O1`, the activation is inactive: -7.71%.

For the molecule `COC1=CC(=O)CC(C)C12Oc1c(Cl)c(OC)cc(OC)c1C2=O` (stereo unspecified), the activation was inactive: 2.44%.

In the case of `COc1ccc(-c2noc(CC(=O)O)c2-c2ccc(OC)cc2)cc1`, the activation was inactive: -10.4%.

As for `COc1cc2c(cc1OC)C(C(=O)c1ccc(OC)c(OC)c1O)=NCC2`, the activation is inactive: -11.6%.

Regarding `CN(C)CCC=C1c2ccccc2C=Cc2ccccc21`, the activation was inactive: -11.7% and inactive: -9.8% and inactive: -5.9%.

Regarding `NC(N)=N/N=C/c1c(Cl)cccc1Cl`, the activation is inactive: -12.2% and inactive: -6.28%.

In the case of `Clc1ccc[n+](CCCCC[n+]2cccc(Cl)c2)c1`, the activation is inactive: -27.9%.

Take `NS(=O)(=O)c1cc2c(cc1Cl)NCNS2(=O)=O`: the activation was inactive: -10.7% and inactive: -15.7%.

For `O=C1C(=O)N(Cc2ccc(Cl)c(Cl)c2)c2ccccc21`, the activation was inactive: 14.4%.

In the case of `CC1=C(/C=C/C(C)=C/C=C/C(C)=C/C=C/C=C(C)/C=C/C=C(C)/C=C/C(=O)[C@]2(C)CC(O)CC2(C)C)C(C)(C)CC(O)C1` (stereo partly specified), the activation was inactive: -2.2%.

`CS(=O)(=O)N1CCC2(CCCN(C(=O)Nc3cccc(C#N)c3)C2)CC1`: the activation is inactive: -28%.

As to `COc1cc(/C=C/C(=O)O)ccc1O`, the activation was inactive: -2.06%.

Turning to `Cc1cnc(SCc2ccccn2)nc1C1CCCN(C(=O)c2ccc3c(c2)OCCO3)C1` (stereo unspecified), the activation is inactive: 5.18%.

Regarding `C[N+]1(C)CCC(=C(c2ccccc2)c2ccccc2)CC1`, the activation is inactive: -2.94% and inactive: -10.3%.

In the case of `CC(C)CC(NC(=O)OCC1c2ccccc2-c2ccccc21)C(=O)O` (stereo unspecified), the activation is inactive: -3.94%.

Take `COc1cccc(Nc2ncc3nc(-c4ccc(F)cc4)c(=O)n(C[C@H]4CCCO4)c3n2)c1`: the activation was inactive: -12.1%.

As for `Nc1ccc(C(=O)Oc2ccccc2)c(O)c1`, the activation was inactive: -6.09%.

Turning to `O=c1c(-c2ccc(F)cc2)nc2cnc(Oc3cccc(Cl)c3)nc2n1C1CC1`, the activation is inactive: 0.999%.

For `CCNc1ncc2nc(-c3ccc(Cl)cc3)c(=O)n(C)c2n1`, the activation is inactive: -9.79%.

As for `Cc1ccccc1C1(CC(=O)N2CCCCC2C)CC(=O)N(Cc2cccnc2)C1=O` (stereo unspecified), the activation is inactive: -8.13%.

For `COc1cc(CN2CCCC(n3cc(C(=O)N4CCCC4)nn3)C2)cc(OC)c1` (stereo unspecified), the activation was inactive: -11.8%.

Turning to `O=C(Oc1ccccc1)N1CCC2(CCCN(c3ccncc3)C2)CC1`, the activation was inactive: -10%.

Turning to `Cc1ccc(-c2ccnc(-n3ncc(C(=O)N(C)Cc4cccc5ncccc45)c3C3CC3)n2)o1`, the activation is inactive: 2.22%.

Regarding `Cc1noc(C)c1CCC(=O)N1CCOc2ccc(CN3CCN(c4ccccn4)CC3)cc2C1`, the activation was inactive: 2.37%.

On to `COC(=O)c1cc(CNC(=O)c2cccc(N(C)C)c2)cc(NC(=O)c2ccccc2Cl)c1`, for which the activation is inactive: -22%.

Consider `O=c1[nH]c(=O)n([C@H]2C[C@H](O)[C@@H](CO)O2)cc1F`, for which the activation was inactive: 4.7% and inactive: 5.76%.

As for `COc1ccccc1CN1CC[C@@]2(CCCN(C(=O)c3cccc(F)c3)C2)C1`, the activation was inactive: -1.9%.

For `Fc1ccc(Nc2ccnc(-c3ccoc3)n2)cc1`, the activation is inactive: -20.5%.

On to `CCCCCCOC(=O)c1cccnc1`, for which the activation is inactive: -12.8%.

Turning to `COc1ccc(-c2cn(Cc3ccc(C(=O)c4ccccc4)cc3)nn2)cc1`, the activation was inactive: -10.2%.

With `OC(CN1CCCCC1)c1cc(-c2ccccc2)on1` (stereo unspecified), the activation was inactive: 8.32%.

In the case of `NC(=O)c1ncn([C@@H]2O[C@H](CO)[C@@H](O)[C@H]2O)c1N`, the activation was inactive: -9.43%.

`C=C1CCC2C(CC2(C)C)C(=C)CC/C1=N/O` (stereo unspecified): the activation was inactive: -9.33%.

On to `CNc1nc(-c2ccoc2)nc2ccccc12`, for which the activation is inactive: -5.87%.

In the case of `COc1cc2c(cc1OC)[C@@H](c1ccccc1)CN(C)CC2`, the activation is inactive: -4.15%.

As to `Cc1ccccc1-c1nc(N2CCNCC2)c2ccccc2n1`, the activation is inactive: 1.67%.

On to `Cc1cc(C)cc(CN2CCc3nnc(C(NS(C)(=O)=O)C(C)C)n3CC2)c1` (stereo unspecified), for which the activation was inactive: -22.2%.

For the molecule `COC(=O)[C@@H]1CCCN1C(=O)c1c(OC)cc(=O)n2c1CCN(Cc1ccc3cccnc3c1)CC2`, the activation was inactive: -13.9%.

In the case of `NCCc1ccn[nH]1`, the activation was inactive: -15.3%.

In the case of `COc1ccc(/C=C/C(=O)c2cccs2)cc1OC`, the activation is inactive: -0.0267%.

With `C[N+]12CCC(CC1)C(OC(=O)C(O)(c1ccccc1)c1ccccc1)C2` (stereo unspecified), the activation is inactive: -7.78% and inactive: -13.7%.

In the case of `CN(C)C(=O)c1ccc(-c2cncnc2N2CCNCC2)cc1`, the activation was inactive: -0.757%.

For the molecule `COC(=O)[C@@H]1CCCN1Cc1ccc2c(c1)CN(Cc1ccc(OC)c(C)c1)CCO2`, the activation is inactive: -7.08%.

Consider `Nc1ncnc2c1nc(Br)n2C1OC(CO)C(O)C1O` (stereo unspecified), for which the activation was inactive: -0.2%.

As to `O=C(c1cc(C(F)(F)F)cc(C(F)(F)F)c1)N1CCC2(CC1)CN(c1ccncc1)C2`, the activation was inactive: -10.3%.

In the case of `Nc1ncnc2c1ncn2[C@@H]1O[C@H](COP(=O)(O)O)[C@@H](O)[C@H]1O`, the activation was inactive: 9.28%.

These data come from PubChem BioAssay AID1645887 (National Center for Advancing Translational Sciences (NCATS), 2021).
